# Source: PubChem BioAssay AID651820 (National Center for Advancing Translational Sciences (NCATS), 2012)
# Out of some 340,000 compounds screened, about 12,000 (3.5%) were called active. The shares of active, inactive and inconclusive entries below differ from those in the screen. Calls follow the shape of the dose curve; as a rule, active = well fitted inhibition curve with a large enough effect; inconclusive = small, poorly fitted or top-dose-only effect, or another doubt; inactive = no such curve, though single readings can be large or run the other way. No potency is given beside an inconclusive call; the fits are too rough.
# Experiment: qHTS Assay for Inhibitors of Hepatitis C Virus (HCV)
# Conditions: Huh7.5.1 HCVcc-Cre (HCVcc is cell-culture hepatitis C virus) infection, luciferase reporter, 44 h; activity change, negative = inhibition: at 41.8 µM (top of the series)
# Summary of the method: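 HCVcc-Cre virus at an moi near 0.5 was added right after compound to cells cultured 4 h from seeding (1,000 cells/well). Luciferase activity was determined 44 h later, 15 min after substrate addition at RT.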
# % is scaled to controls: 0 for no effect and ±100 for the full control effect; potency is read from the fitted curve at half-maximal effect; tags tell the direction and shape of the fitted curve.
SMILES,"activity change, negative = inhibition",Potency
Clc1ccc(SCCCCN2CCOCC2)cc1,inactive: -2.21%,–
COc1ccc(/C=N\NC(=O)C2COc3ccccc3O2)cc1O (configuration not stated),inactive: 16.6%,–
c1ccc(C[C@H]2CNCCN2CCCCC2CCCCC2)cc1,–,"inconclusive [inhibitor, single point]"
CCc1nnc(NC(=O)c2ccc(S(=O)(=O)N3CCCCCC3)cc2)s1,inactive: -4.49%,–
COc1ccc(/C=C2\SC(=S)N(CCC(=O)NC3=NCCS3)C2=O)cc1OC,inactive: -25.5%,–
CCCCOc1ccc(/C=C/C(=O)OCC(=O)N2CC(=O)Nc3ccccc32)cc1OCC,–,active: 7.94 µM
COc1ccc(NC(=O)c2c(C)nn(Cc3ccccc3Cl)c2Cl)cc1Cl,–,"inconclusive [inhibitor, full curve, poor fit]"
Cc1ccsc1/C=N/n1c(-c2ccncc2)n[nH]c1=S,–,"inconclusive [inhibitor, single point]"
COCCNC(=O)c1c[nH]c2ccc(S(=O)(=O)N3CCC4(CC3)OCCO4)cc2c1=O,–,"inconclusive [inhibitor, partial curve]"
CCOC(=O)C1CCN(C(=O)c2ccc(OCC(=O)Nc3cccc(C(F)(F)F)c3)cc2)CC1,–,"inconclusive [inhibitor, single point]"
COC(=O)C1=C(c2ccc(Cl)c(C(F)(F)F)c2)C[C@@H]2CC[C@H]1N2C(=O)NCc1cc(C)oc1C(F)(F)F,–,"inconclusive [inhibitor, single point]"
CCOc1ccc(N(Cc2cc3ccc(C)cc3[nH]c2=O)S(C)(=O)=O)cc1,–,"inconclusive [inhibitor, partial curve, poor fit]"
CC(Sc1ccccc1)C(=O)NCC(c1ccco1)N1CCCCC1 (configuration not stated),–,"inconclusive [inhibitor, partial curve]"
Oc1cccc(/C=N/Nc2cc(N3CCCC3)nc(N3CCCC3)n2)c1,–,"inconclusive [inhibitor, partial curve]"
CN(C)C(CNC(=O)Nc1cccc(Cl)c1)c1cccnc1 (configuration not stated),–,"inconclusive [inhibitor, single point]"
Cc1cc(SCc2ccc(Cl)c(Cl)c2)nc(=O)[nH]1,inactive: 6.72%,–
Cc1ccccc1CNC(=O)CCCC(=O)n1nc(C)c2ccccc21,–,"inconclusive [inhibitor, full curve, poor fit]"
COc1ccc(-c2cc3nc4c(c(=O)n3[nH]2)CCC4)cc1,inactive: 0.0509%,–
O=C(N=Nc1c(O)[nH]c2ccccc12)c1cccs1,inactive: -4.17%,–
COc1ccc(NC(=S)N2CCCC(c3nc4ccc(C)cc4[nH]3)C2)c(OC)c1 (configuration not stated),–,"inconclusive [inhibitor, partial curve, poor fit]"
COc1cc(/C=N/O)cc(Cl)c1OC,inactive: 2.77%,–
C=C1C(=O)OC2C1CCC(C)C1C=CC(=O)C12C (configuration not stated),–,"inconclusive [inhibitor, single point]"
CCc1ccc(N=Nc2ccc(O)c3[nH]cnc23)cc1,inactive: 2.53%,–
NC(=S)Nc1cc2ccccc2c2ccccc12,–,"inconclusive [inhibitor, single point]"

SMILES,"activity change, negative = inhibition",Potency
Cc1cccc(N2CCN(C(=O)CS(=O)(=O)Cc3nc(-c4ccccc4F)oc3C)CC2C)c1 (configuration not stated),–,active: 12.6 µM
O=c1[nH]c2ccc(Cl)cc2[nH]1,inactive: 9.27%,–
COc1ccc(N2CCN(S(=O)(=O)CCNC(=O)C3CC3)CC2)cc1,inactive: -4.19%,–
Clc1ccccc1CSc1snnc1-c1ccccc1,inactive: -8.11%,–
Cc1ccccc1OCC(=O)Nc1cccc(Cl)c1C,inactive: 2.52%,–
O=C(CCl)Nc1ccccc1C(=O)Nc1ccc2c(c1)OCO2,–,"inconclusive [inhibitor, single point]"
CCS(=O)(=O)CCSc1nc2c(cc1C#N)CCCC2,–,"inconclusive [inhibitor, partial curve]"
Cc1ccc(NC(=O)c2cc(-c3ccc(C)c(C)c3O)n[nH]2)cc1C,–,"inconclusive [inhibitor, partial curve, poor fit]"
COCCOC(=O)c1c(NC(=O)CN2CCc3ccccc32)sc(C(N)=O)c1C,–,"inconclusive [inhibitor, full curve]"
CCOc1ccc(NC(=O)CN2C(=O)NC(CCSC)C2=O)cc1 (configuration not stated),inactive: 18.8%,–
CC[n+]1c(/C=C/N(C)c2ccccc2)sc2ccc(Cl)cc21,–,"inconclusive [inhibitor, full curve, poor fit]"
O=C(CCl)N1CCN(C(=O)C2COc3ccccc3O2)CC1 (configuration not stated),–,"inconclusive [inhibitor, single point]"
CCN(CC)CCn1c2c(c(SCC(=O)Nc3cc(OC)cc(OC)c3)nc1=O)CCC2,–,"inconclusive [inhibitor, partial curve]"
Cc1cc(Cl)ccc1OCCCC(=O)N1CCCc2ccccc21,–,"inconclusive [inhibitor, partial curve]"
CCOC(=O)c1c(C)c(C(=O)N2CCc3ccccc3C2)c(C)n1CC,–,"inconclusive [inhibitor, single point]"
O=C(NCC(c1cccs1)N1CCOCC1)c1cn(-c2ccccc2)nc1-c1ccc(Cl)cc1 (configuration not stated),–,"inconclusive [inhibitor, partial curve]"
O=C(OCc1cc([N+](=O)[O-])cc2c1OCOC2)c1ccccn1,inactive: -16.2%,–
COc1cc(OC)cc(C(=O)N[C@H](C(=O)N2CCc3ccccc32)C(C)C)c1,–,"inconclusive [inhibitor, single point]"
CCSc1nc(C2CC2)cc(-c2ccco2)c1C#N,–,"inconclusive [inhibitor, partial curve]"
CN(c1ccccc1)S(=O)(=O)c1cccc(NC(=O)CSc2nncs2)c1,–,"inconclusive [inhibitor, partial curve]"
COc1cc(NC(=S)NC(=O)c2c(OC)cccc2OC)ccc1NC(=O)c1cccs1,–,"inconclusive [inhibitor, full curve]"
Cn1c(CNc2ccccc2O)nc2ccccc21,inactive: 1.48%,–
CCCCOc1ccc(C(O)(CCN2CCOCC2)c2ccccc2)cc1 (configuration not stated),–,"inconclusive [inhibitor, partial curve]"
CC1=C(C)/C(=N\OS(=O)(=O)c2ccccc2)C=CC1=O,–,active: 12.6 µM

SMILES,"activity change, negative = inhibition",Potency
CCCCCN(C(=O)CCC(=O)OCc1cc(C(C)=O)ccc1OC)c1c(N)n(CCCC)c(=O)[nH]c1=O,–,"inconclusive [inhibitor, single point]"
Cc1ccc(S(=O)(=O)N(C)c2c(C)ccc(S(=O)(=O)N3CCN(C=O)CC3)c2C)cc1,inactive: -6.17%,–
CC(C)(C)c1ccc(C(=O)N2CCN(CCNC(=O)C(=O)Nc3ccc(F)cc3)CC2)cc1,–,"inconclusive [inhibitor, partial curve, poor fit]"
Cc1onc(-c2ccccc2)c1C(=O)c1c[nH]c(C(=O)NCc2ccncc2)c1,–,"inconclusive [inhibitor, partial curve]"
CN1/C(=C\C(=O)CSc2cccc[n+]2[O-])C(C)(C)c2ccccc21,–,"inconclusive [inhibitor, single point]"
COC(=O)CN(c1cc(Cl)ccc1OC)S(=O)(=O)c1ccc(C)cc1,–,"inconclusive [inhibitor, single point]"
CCC1CCCCN1C(=O)CSc1nc2c(c(=O)n(C)c(=O)n2C)n1C (configuration not stated),–,"inconclusive [inhibitor, full curve, poor fit]"
Cc1ccc2cc(CN(CC3CCCO3)C(=S)NCc3ccco3)c(=O)[nH]c2c1 (configuration not stated),inactive: -0.297%,–
O=C(Nc1ncn[nH]1)c1c(Cl)ccc(Cl)c1Cl,inactive: -4.94%,–
O=C(c1cc(-c2ccccc2)nc2ccccc12)N1CCN(c2ccccc2O)CC1,–,"inconclusive [inhibitor, single point]"
COc1ccc(CCNc2nc(C)c(C(C)=O)s2)cc1OC,inactive: -16%,–
C=CCn1c(=O)[nH]c2cc(C(=O)N3CCN(c4cccc(Cl)c4)CC3)ccc2c1=O,inactive: -29.9%,–
CCc1cc2c3c([nH]c2cc1S(=O)(=O)N1CCC2(CC1)OCCO2)CCCC3=O,–,"inconclusive [inhibitor, single point]"
O=C(NC(=S)Nc1ccccc1O)c1ccccc1Cl,inactive: -21.5%,–
COc1ccc(-c2csc(N(CCCN3CCOCC3)C(=O)c3ccco3)n2)cc1,–,active: 10 µM
O=C(CSc1cc(Cl)ccc1Cl)NCC1CCCO1 (configuration not stated),inactive: -0.337%,–
COc1ccc(C(=O)C(CN2CCCC2)c2ccccc2)cc1 (configuration not stated),–,"inconclusive [inhibitor, single point]"
COc1ccc(/C=C2\CCC/C(=C\c3ccc(OC)c(OC)c3OC)C2=O)c(OC)c1OC,–,"inconclusive [inhibitor, partial curve]"
COc1ccccc1/C=C\C=N\n1c(-c2ccc(Cl)cc2Cl)n[nH]c1=S,inactive: 4.06%,–
Cc1cc(C)n2c(SCC(=O)Nc3c(C)n(C)n(-c4ccccc4)c3=O)nnc2n1,–,"inconclusive [inhibitor, partial curve]"
CCSc1nnc(NC(=O)C(C)(C(F)(F)F)C(F)(F)F)s1,–,"inconclusive [inhibitor, single point]"
CCc1ccc(-n2c(C)nc3cc(C(=O)NCc4cccnc4)ccc32)cc1,–,"inconclusive [inhibitor, single point]"
COc1cccc(NC(=S)Nc2cc(C)cc(C)n2)c1,inconclusive: -31.9% [inhibitor],–
CCCn1c(SCC(=O)N(C)C2CCS(=O)(=O)C2)nc2sc3c(c2c1=O)CCC3 (configuration not stated),–,"inconclusive [inhibitor, partial curve]"
